Experimental data from PubChem BioAssay (NCI).
The source holds several records for some structures; these can differ, active in one and inactive in another.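 Single-concentration screen, 48 h exposure, 96-well plates. Endpoint: percent growth. Below 10 = active.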 For part of its entries the source gives two or more results. The list is limited to them. There may be further records. The screen tested this drug many times, at its own concentration, as given; one value stands for one run. Additions like (4×) count equal records among those shown.

Experiments:
Assay in all cases: NCI-60 one-dose screen, 48 h (100 = growth as untreated, 0 = no growth, -100 = all killed)
M14 melanoma = conditions: 2.5 mM; runs of 2000
HCT-15 colon = conditions: 2.5 mM
HT29 colon = conditions: 2.5 mM

O=c1[nH]cc(F)c(=O)[nH]1
growth (M14 melanoma): active: 1.65, 1.9, 0.581, -49.2%
growth (HCT-15 colon; runs of 1991): active: 8.57, -13.9, -9.73, 5.33, 9.02, -7.72, 7.4, 5.32, -2.15, -40.2% and inactive: 15.4, 18.9, 10.8, 12 (2×), 99.3, 11%
growth (HCT-15 colon; runs of 1992): active: 6.07, 4.37, 4.95, 7.05, 7.36, 1.75, 9.75, 5.99, 8.69, -4.85, -77, -16.6, -14.7, 3.3, 0.891, 9.84, -40, 5.43, 3.79, 4.23, 9.77, 4.19, -11.7, -4.4, 6.23, -0.552, 4.45, -13.5, -3.36, 2.03, 9.95, -45.9, 8.43, -36.2, -7.91, 5.98, -24.7, -4.84, 4.87, 1.63, 6.72, -25.8, -10.9, 5.36, 1.65, 4.61, -13.8, -7.03, 5.77, 6.7, 4.66, 3.81, -11, 2.12, -28.5, -33.4, 0.0454, -13, 1.05, 6.06, 6.48, 6.55, 6.74, 5.86, 2.46, -27.6, 0.176, 1.86, -32.9, -42.9, -22.5, 9.28, 7.33, 7.89, 0.488, 6.49, -23.4, -1.78, -2.75, 2.09, 7.64, 7.22, 1.47, 0.997, 1.61% and inactive: 13.3, 12.3, 11.4 (2×), 34, 41.6, 36.7, 17.6, 18.2, 22.2, 24.8, 25.2, 17.8, 13.8, 14.5, 15.8, 18.3, 23.3, 20, 14.2, 16.8, 18.5, 16.5, 11 (2×), 10.1, 20.7, 18.4, 14.6, 10.7, 12.2, 34.4, 10.4, 18.1, 14.4%
growth (HCT-15 colon; runs of 1993): inactive: 11.8 (3×), 14.5, 10.1, 20.6, 11.4, 30 (2×), 11.5, 13.7, 11, 17.9, 24.1, 14.6, 13.2, 13.9, 11.7, 12.4, 20, 16.3, 15, 18.1, 27.1, 19.8, 17.2, 11.1, 20.3, 11.6, 13.1, 18.3% and active: 9.06, -0.851, 6.06, 6.37, 9.11, 5.88, 6.4, 9.42 (2×), 8.23, 8.84, 8.61, -2.24, 9.61, 5.58, 1.21, 1.91, -2.41%
growth (HCT-15 colon; runs of 1994): inactive: 20.9, 14 (2×), 18.1, 12.5, 15.6, 12.8, 23.3, 12.9, 20.3, 17.7, 11.5, 27.8, 21.7, 12.2, 15.1, 17.6, 13, 23.2, 12.7, 14.1% and active: 2.56, 8.74, 5.57, 1.06, 0.63, -12.2, 2.01, -21.7, -12.6, -0.316, 5.66, 4.35, 7.74%
growth (HCT-15 colon; runs of 1995): inactive: 14.6, 19.2, 16.8, 15, 18, 16.3, 39.6, 17.9, 19.3, 12.8, 11, 29, 13.4, 22.4, 13.5% and active: 7.05, 6.89, 3.41, 9.79, 5.37, 2.33, 1.76, 7.56, -20, -24.3, 0.211, 5.62, 7.35, -5.93, 8.41, 6.66, -5.82, 2, 3.49, 5.73, 1.87, -17.6%
growth (HCT-15 colon; runs of 1996): inactive: 12.9, 23.3 (2×), 14.6, 13.4, 15.9, 20.7, 17.4, 22.7, 14.4 (2×), 15.4, 12.7, 10.1 (2×), 10.9, 15.7, 13.6, 15.2, 18.8, 13.5, 24.5, 12.2, 14.5, 10, 11.7, 14.1% and active: 3.29, -10.3, 7.15, 7.07, 7.81, 9.92, -1.03, -62, 7.51, 9.91, 5.47, 7.19, 3.05, 6.53, -13.9, 3.38, 4.36, 9.26, 6.77, 6.14, 4.66, 5.19, 5.78, 1.15, 5.09, 1.67, 3.13, 7.78, 6.06, 5.65, 7.59, -4.52%
growth (HCT-15 colon; runs of 1997): inactive: 14.1, 10.4, 12.6, 13.6, 11.4, 15.8, 12.9, 16.7, 17.9, 14.8, 22.2, 13.8, 24.1, 11.2, 13.2, 18.4, 12.4, 21.1, 13.7% and active: 4.78, -19.4, 7.23, 5.66, 1.96, -19.1, -32.6, -20, 8.15, -24.1, 7.42, 2.06, 7.92, 6.53, 9.71, 3.65, 8.97, -18.5, 6.76, 7.13, 3.69, 5.22, 8.04, 8.29, 3.98, 1.71, 3.36%
growth (HCT-15 colon; runs of 1998): inactive: 11.2 (2×), 20.2, 15.8, 13 (2×), 25.9, 13.1, 13.2 (2×), 14, 15.6, 14.2, 17.9, 17.7, 22.4, 11.7, 12, 18.8, 13.5, 17.2% and active: 2.68, -2.48, -16.8, 5.2, 6.09, 7.36%
growth (HCT-15 colon; runs of 1999): inactive: 27.1%, 11.8%, 10.7% and active: 9.08, -2.67, -13.8, -100, -26.9, 0.802, -79.2, 3.83, 3.38, -67.2, -13.3, -90.1, 0.221, -7.5, 2.05%
growth (HCT-15 colon; runs of 2000): active: -24.6, 2.32, 0.88, 0.127%
growth (HT29 colon; runs of 1991): inactive: 110, 11.8, 15.4 (2×), 16.6, 11.5, 16.7, 13.7, 12.7, 11.2% and active: 9.77, 5.99, -44.8, -2.05, 8.47, 3.84, 4.17, 5.58, 2.85, 7.29%
growth (HT29 colon; runs of 1992): inactive: 12.2, 10.2, 16.2, 13.2, 20.7, 17.2, 14.9, 23.6, 13.5 (2×), 22.3, 13.9 (3×), 39.2, 16.3 (2×), 15.8 (3×), 14.8 (3×), 15.2, 15.7, 18.8, 19.5, 10.4 (2×), 11.8 (2×), 21.2, 12.6, 25.7, 19.8, 13, 14.6, 86.6, 19.4 (2×), 14.2, 18.5, 26.7, 17 (2×), 17.6, 12.5 (2×), 13.8, 20, 10.8, 20.4, 12.7 (2×), 11.5, 16.4, 21.4, 11.7, 15.4, 11.3, 10, 20.9, 17.9, 11.6, 23.4, 16.7, 12.3, 31.9, 15.3% and active: 6.59, 2.47 (2×), 5.25, 7.81, 6.96, 5.79, 9.87, 7.24, 7.32, -16.4, -8.07, 8.64, 9.07, 8.17, 8.71, 6.63, 9.44, 8.41, 8.01, 9.81, -2.54, 6.26, 8.4, 1.42, -15.8, 3.58, 7.7, -1.47, 7.84, 5.86, 5.46, 8.67, 8.44, 4.22, 9.86, 7.43, 6.85, 4.98, 9.78, 7.53, 5.22, 0.145, 2.75, 8.3, 8.51, 6.82, 6.87, 8.45, 8.63, 7.8, 6.88%
growth (HT29 colon; runs of 1993): active: 5.65 (2×), 8.66, -20.1, 7.65, 0.342, 7.29, 1.71, 9.6, 5.97, 9.18, 8.6, -3.64, 9.53, 9.13, 7.49, 8.99, 8.37% and inactive: 16.8, 12.4, 18.6, 20.9 (2×), 11.5, 13.2 (2×), 13, 25.7, 15.1 (2×), 14.9 (2×), 10.5, 18.1, 13.7, 20.7, 15.3, 15.8, 14.5, 16.4, 92.8, 25, 77.2, 25.1, 11.1, 21.2, 14%
growth (HT29 colon; runs of 1994): inactive: 14.1 (3×), 16.5, 17.7, 13.2, 15.4, 11.3, 16.4, 19.6, 15.1, 19.9, 15.8, 19, 18.9, 15.6, 17.1, 14.7, 16.7% (2×) and active: 2.02, 5.54, 4.98, 7.87, -13.5, 7.04, 6.51, 8.99, 9.16, 9.88, 8.64%
